Assay results as given in the BET-seq Pho4 binding data (Le et al. 2018).
This is one part of the list. The energies were worked out here from pooled read counts, against the library average; single values are noisy.

molecular target: T1, Pho4 (S. cerevisiae) (UniProt P07270); experiment: relative binding free energy (BET-seq); higher = weaker binding; conditions: reference: library average
T1 sequence: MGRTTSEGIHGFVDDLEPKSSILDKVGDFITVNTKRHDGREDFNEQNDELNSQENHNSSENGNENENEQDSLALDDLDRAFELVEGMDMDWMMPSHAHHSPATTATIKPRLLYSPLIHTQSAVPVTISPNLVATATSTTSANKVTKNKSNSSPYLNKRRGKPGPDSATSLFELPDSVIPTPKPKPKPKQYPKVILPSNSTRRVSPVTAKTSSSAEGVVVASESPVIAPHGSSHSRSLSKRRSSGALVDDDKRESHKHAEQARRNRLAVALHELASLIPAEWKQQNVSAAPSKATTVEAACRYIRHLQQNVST

Sequence	relative binding free energy [kcal/mol]
TGCTGCACGTGAGGTA	0.17
TTGTTCACGTGCGAAG	0.27
TCATTCACGTGATGGA	0.27
TTGTGCACGTGAAGTG	0.25
GAAGTCACGTGTGGGC	0.25
TGCTTCACGTGTAGAG	0.11
ATGAGCACGTGGGAGG	-0.27
TCCGGCACGTGGGATG	-0.17
TAGTACACGTGAGGAT	0.28
CTAGTCACGTGAGTTA	0.27
GTTCCCACGTGGGGTA	-0.17
TTAGGCACGTGACGGA	-0.09
CTGCACACGTGGTGGT	-0.07
GGTTGCACGTGGTAAG	0.05
ACTTGCACGTGGTATA	-0.02
TGGGGCACGTGAGCCT	0.08
CTTTGCACGTGTAGAG	0.01
TCTGTCACGTGAAGGT	0.26
TTGTGCACGTGTAAGT	0.06
GTTGCCACGTGATTGT	0.2
TGAGTCACGTGACAGT	0.14
TGCTTCACGTGCTTGG	0.17
CGGTTCACGTGAAGTG	0.42
TTAAGCACGTGCGGGA	-0.15
CTGTTCACGTGGGTCT	-0.04

Sequence	relative binding free energy [kcal/mol]
CTGGGCACGTGGACGG	-0.13
CGGAACACGTGAGGGG	0.22
CGGAGCACGTGGGTTG	-0.12
GGGGCCACGTGTGATG	0.14
CTTGACACGTGGAGGG	0.02
CTTGTCACGTGGAGGT	0.19
AATCGCACGTGATGTT	0.22
TGTCACACGTGGGTGT	-0.13
TGGGTCACGTGGTTCC	0.05
AGTACCACGTGGGGTT	-0.29
AGACTCACGTGGTAGG	0.29
TAGGGCACGTGTAACG	-0.04
GGTGACACGTGTGTCA	0.04
TCAAGCACGTGGTGGT	-0.2
CTGGTCACGTGGGTAT	-0.02
AGGCTCACGTGCGTGG	-0.02
GTAAGCACGTGGGATT	-0.12
ATCGACACGTGTTGTG	0.06
GATAGCACGTGATATT	0.2
GGTTTCACGTGAGGCG	0.47
AGGATCACGTGTGGAT	0.25
TTTTGCACGTGATTTC	0.19
TGAATCACGTGGGAAT	0.18
GGGGGCACGTGCGGGC	-0.11
GGACTCACGTGTGGTC	0.29

Sequence	relative binding free energy [kcal/mol]
GTTATCACGTGTGTGC	0.21
GGTTCCACGTGGTGAA	0.11
GTAAACACGTGATTTT	0.22
TTGAACACGTGGGGGG	-0.03
GTGGTCACGTGCTTTT	0.17
TCAGGCACGTGCGTGT	-0.21
GGCTTCACGTGTCGGT	0.2
GCTTTCACGTGATGGT	0.29
GGAGGCACGTGTGGTG	-0.01
AGGTGCACGTGAAGGG	0.3
TTTAACACGTGGAGTT	0.15
GTTAGCACGTGAAGGT	0.16
GGAGGCACGTGGAGCG	-0.14
TATGTCACGTGAATAG	0.36
TGCTTCACGTGGTAAT	0.29
GCCTTCACGTGGGAGT	0.3
GTCTACACGTGGCTGT	0.18
CTTGTCACGTGTTCGA	0.2
AAGGGCACGTGTTACG	-0.19
GTGGACACGTGGTTGA	0.04
TATTTCACGTGCCTGG	0.18
TGGATCACGTGTGGTT	0.35
AAGTGCACGTGTGATT	0.12
TGTGACACGTGGAGCA	0.04
ATTTTCACGTGGGAGC	0.22

Sequence	relative binding free energy [kcal/mol]
CTTTGCACGTGTTGAG	0.03
TAAGACACGTGCATGG	0.06
GTAGACACGTGTGGGT	0.06
TTGGGCACGTGTTTAG	-0.05
GGCGACACGTGACGGG	0.13
GCTTTCACGTGCGTTG	0.16
CGTGGCACGTGGCGCG	-0.23
GCGTGCACGTGCCGGG	-0.05
ATCGTCACGTGGCGGG	-0.12
AGGATCACGTGTGGTA	0.32
GCTTTCACGTGGGGTA	0.08
AGGTGCACGTGAGAGT	0.26
TTCTGCACGTGCGAGG	0.15
GGCTACACGTGGTTGA	0.14
GTCGTCACGTGGTGGC	0.12
GGGGGCACGTGGCTGA	-0.07
AAGGGCACGTGCTCGG	-0.35
TGCCACACGTGTGTTT	0.11
GTGTGCACGTGGGATG	-0.02
CGGTGCACGTGGTCGT	-0.19
GAAATCACGTGGTGGG	0.27
TTAGACACGTGATGGA	0.18
TTCTACACGTGGTGGG	0
CTCGTCACGTGAGGGG	0.26
TTCTTCACGTGTTAAG	0.2

Sequence	relative binding free energy [kcal/mol]
ATTCGCACGTGGGTAG	-0.22
TAAAGCACGTGAGGTT	0.14
ATTGGCACGTGGCTAT	-0.14
ATAGACACGTGTGTGT	-0.04
CTTGTCACGTGGGCTG	-0.2
GTTAACACGTGGGGTC	-0.13
CAGTTCACGTGGGGAG	0.2
GGTTTCACGTGGAAAG	0.26
TGGATCACGTGTTGGC	0.32
ATGTTCACGTGGCAGT	0.18
ATTGTCACGTGTATTT	0.18
AAGTTCACGTGCGTTT	0.29
TTCCACACGTGGTGGG	0.05
GGAGCCACGTGAGTTG	0.12
GTTGTCACGTGGCTTA	0.01
CGTGACACGTGGGTAG	-0.17
TAGTGCACGTGATTAT	0.17
GTTAGCACGTGGGACG	0.02
ATGAACACGTGGGAGG	-0.08
GGATTCACGTGTCAGT	0.41
AAGTTCACGTGTATTA	0.24
GGGTACACGTGTGGTA	0.14
AGACGCACGTGGGTGA	-0.25
GGTTGCACGTGTTTTT	0.07
CTTGGCACGTGTATGT	-0.01

Sequence	relative binding free energy [kcal/mol]
TATTACACGTGTGAGT	0.13
CGGGTCACGTGTAGTG	0.1
AGAATCACGTGGTGGT	0.21
GCTGACACGTGGTTGG	0.04
GCTTACACGTGGGGAT	-0.06
AGTGGCACGTGTTAGT	-0.19
ATTAACACGTGAGTGT	0.07
GGTCGCACGTGTTGTA	0.04
GGGGCCACGTGTAGTG	0.08
GTTTCCACGTGAAGTG	0.34
AGTTGCACGTGCGGGC	-0.12
GTGGACACGTGAGGAA	0.33
ATAGGCACGTGGTGTC	-0.1
GAGTGCACGTGCTTTT	-0.01
TAGCTCACGTGAGAGG	0.36
TAGGTCACGTGATTGG	0.15
GGGGACACGTGTCGAG	0.03
GTAGCCACGTGGTGGC	-0.07
ACAGTCACGTGGTGTG	-0.03
TTGGACACGTGGTTGT	0.01
GTGACCACGTGGGAGG	-0.25
